Laboratory results published in PubChem BioAssay AID485281 (National Center for Advancing Translational Sciences (NCATS), 2010).
In all, about 350,000 compounds went through this assay and about 260 (0.074%) were called active. This list was built around the results that the source calls inconclusive (neither active nor inactive); the mix of calls is not that of the screen. The call rests on the fitted dose curve; in most records, active means well fitted inhibition curve with a large enough effect; inconclusive means small, poorly fitted or top-dose-only effect; inactive means no such curve, though single readings can be large or run the other way. Potencies of inconclusive entries are doubtful fits and often do not repeat.

Target: Ferritin light chain (Equus caballus) (UniProt P02791)
Sequence of UniProt P02791 (P02791 whole entry, looked up): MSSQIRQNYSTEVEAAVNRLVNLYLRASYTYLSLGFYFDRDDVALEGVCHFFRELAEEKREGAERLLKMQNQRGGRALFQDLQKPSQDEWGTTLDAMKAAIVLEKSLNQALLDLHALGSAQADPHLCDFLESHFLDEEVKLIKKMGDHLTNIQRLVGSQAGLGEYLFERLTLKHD
Assay: qHTS Assay for Identification of Novel General Anesthetics; further: nearly all actives have a fitted effect of over 20% in size
Conditions: apoferritin/1-aminoanthracene competitive binding, fluorescence; activity change, negative = displacement: at 77.5 µM (top of the series)
Outline: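 Apoferritin-based anesthetic binding model; compound displacement of fluorescent 1-AMA measured as endpoint fluorescence after 10 minutes at room temperature, scaled to free-ligand and complex controls.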
On the % scale 0 is the no-effect control and ±100 the full control effect; potency means the concentration at half of the fitted maximal effect; tags describe the fitted curve by direction and shape.

Potency, inconclusive:
CCOC(=O)C1CCCN(C(=O)c2cc3c(Cl)nc4ccccc4c3s2)C1 (configuration not stated) 31.6 µM [inhibitor, partial curve], COc1ccc(OC)c(NC(=O)CCC(=O)Oc2ccc(C)cc2)c1 50.1 µM [inhibitor, single point], O=C(CSc1nnc(-c2cnccn2)n1Cc1ccco1)c1ccc(Cl)c(Cl)c1 7.94 µM [inhibitor, partial curve], CC(C)SC1=NC(C)(C)C=C(/C=C/c2ccc(Cl)cc2Cl)N1 28.2 µM [inhibitor, partial curve], CCOC(=O)N1CCN(C(=O)Cn2nc(-c3ccc(Cl)cc3)ccc2=O)CC1 15.8 µM [inhibitor, partial curve], S=C(NCc1ccc2c(c1)OCO2)Nc1ccc2nsnc2c1 28.2 µM [inhibitor, partial curve], CC(C)SC1=NC(C)(C)C=C(/C=C/c2c(Cl)cccc2Cl)N1 31.6 µM [inhibitor, single point], C=CCN(C(=O)Nc1ccc(OC)cc1)c1nnc(-c2ccncc2)s1 22.4 µM [inhibitor, partial curve], Cc1cccc2cc(C#N)c(SCC(=O)N3CCC(C)CC3)nc12 11.2 µM [inhibitor, partial curve], CCOC(=O)c1ccc(NC(=O)CSc2cc(-c3ccccc3)nc(C)n2)cc1 5.62 µM [inhibitor, partial curve], O=C(COC(=O)CCC1CCCC1)Nc1ccc(Cl)cc1F 35.5 µM [inhibitor, partial curve], Cc1ccc(C)c(-c2csc(-c3cccnc3)n2)c1 35.5 µM [inhibitor, partial curve], Cc1ccccc1OCCOc1cccc(/C=N/NC(=O)Cc2nnc(N)s2)c1 39.8 µM [inhibitor, partial curve], NC(=S)NN=C1C2CC3CC(C2)CC1C3 50.1 µM [inhibitor, single point], CNNC(=S)NCCC1=CCCCC1 17.8 µM [inhibitor, partial curve, poor fit], COc1cc(OC)cc(C(=O)N[C@H](C(=O)OCn2nnc3ccccc3c2=O)C(C)C)c1 28.2 µM [inhibitor, partial curve], Cc1ccccc1/[N+]([O-])=C/c1ccncc1 56.2 µM [inhibitor, partial curve], O=C(c1cccc(C(F)(F)F)c1)C1CCCN(C(=O)c2cc(C3CC3)[nH]n2)C1 (configuration not stated) 44.7 µM [inhibitor, single point], CCC1CCCCN1S(=O)(=O)c1ccccc1[N+](=O)[O-] (configuration not stated) 25.1 µM [inhibitor, partial curve], CCOc1ccc(-c2nnn(CC(=O)c3ccc4c(c3)OCCO4)n2)cc1OCC 14.1 µM [inhibitor, partial curve, poor fit], CCOc1cc(/C=C2/SC(=S)NC2=O)ccc1OC(=O)c1ccco1 35.5 µM [inhibitor, partial curve], Cc1ccccc1N1C(=O)C2C3C=CC(CC3)C2C1=O (configuration not stated) 25.1 µM [inhibitor, partial curve], Cc1cc(C)n2nc(C(=O)OCC(=O)Nc3ccc4c(c3)OC(F)(F)O4)nc2n1 22.4 µM [inhibitor, partial curve, poor fit], COc1ccccc1/C=C(/C(=O)OCC(=O)N(C)Cc1ccccc1)c1ccccc1 17.8 µM [inhibitor, partial curve], COc1cccc(C(=O)COc2cccc(NC(=O)c3cccc([N+](=O)[O-])c3)c2)c1 8.91 µM [inhibitor, partial curve], NNc1nc2c(Cl)ccc(Cl)c2s1 50.1 µM [inhibitor, single point], Cc1cc([N+](=O)[O-])c2c(c1C)C1C=CCC1C(c1ccccn1)N2 (configuration not stated) 39.8 µM [inhibitor, partial curve], CCn1c(CSCc2ccccc2)n[nH]c1=S 35.5 µM [inhibitor, single point], CCC(C)Sc1nc2c(c(=O)[nH]c(=O)n2C)n1CC(O)COc1cccc2ccccc12 (configuration not stated) 5.62 µM [inhibitor, full curve, poor fit], CC1(C)CC(NC(=O)c2cc(COc3cccc(C(F)(F)F)c3)on2)CCO1 (configuration not stated) 50.1 µM [inhibitor, partial curve], CCC(C)c1ccc(NC(=S)NCCn2cc(Br)cn2)cc1 (configuration not stated) 28.2 µM [inhibitor, partial curve], COC(=O)CNC(=O)c1cc(-c2ccncc2)nc2c(C)c(Cl)ccc12 35.5 µM [inhibitor, partial curve], O=S(=O)(NCc1ccco1)c1cccc(S(=O)(=O)N2CCCCC2)c1 25.1 µM [inhibitor, single point], CCc1cccc(N=c2c([N+](=O)[O-])nn(-c3ccc4c(c3)OCCO4)n2O)c1 14.1 µM [inhibitor, partial curve], COc1ccc(CNC(=O)c2cnn(-c3ccc(OC)cc3)c2C2CCN(C(=O)OC(C)(C)C)CC2)cc1 3.55 µM [inhibitor, partial curve], CCC1(Cc2ccccc2)NC(=O)c2ccccc2O1 (configuration not stated) 11.2 µM [inhibitor, partial curve], CC1CC2(CCCCC2)N2C(=O)C(=O)c3cccc1c32 (configuration not stated) 22.4 µM [inhibitor, partial curve], CCNc1ccc2noc3c2c1C(=O)c1ccccc1-3 39.8 µM [inhibitor, single point], Cn1cc(C(=O)N2CCN(c3cccc(Cl)c3)CC2)c(=O)c2cc(S(=O)(=O)N3CCCC3)ccc21 25.1 µM [inhibitor, partial curve], Cc1ccc(-c2csc(N3CCN(c4cc5c(cc4Cl)nc(-c4ccncc4)n5CCN4CCCCC4)CC3)n2)cc1 25.1 µM [inhibitor, partial curve], O=C(COC(=O)CCSc1ccccc1Cl)Nc1ccc(F)cc1F 35.5 µM [inhibitor, partial curve], Cc1cccc(C(=O)c2cnc3ccccc3c2-c2ccccc2)c1 17.8 µM [inhibitor, partial curve], O=C(CSCCNS(=O)(=O)c1ccccc1)Nc1ccccc1 28.2 µM [inhibitor, single point], CCCN(CC1CC1)S(=O)(=O)c1ccc(-n2cnnn2)c(OC)c1 12.6 µM [inhibitor, full curve, poor fit], CCc1ccccc1NC(=O)C/C(C)=N/NC(=O)COc1ccccc1C 25.1 µM [inhibitor, single point], Cc1cc(C)nc(/N=C(\N)Nc2ccc(OCc3ccccc3)cc2)n1 22.4 µM [inhibitor, partial curve], O=c1c2oc3ccccc3c2ncn1Cc1ccccc1F 22.4 µM [inhibitor, partial curve], c1ccc(-c2ccc(OCCCNC3CCCC3)cc2)cc1 28.2 µM [inhibitor, partial curve], Cc1cccc(OCC(=O)Nc2c(C(=O)N3CCN(c4ccccc4)CC3)oc3ccccc23)c1 39.8 µM [inhibitor, single point]

Potency, active:
C/C(N)=C(/C#N)C(=O)COC(=O)CC12CC3CC(CC(C3)C1)C2 17.8 µM

Activity change, negative = displacement, inactive:
Oc1cccc(/C=N/N(Cc2ccccc2)c2ccccc2)c1 -4.13%, COC(=O)c1cccc(NC(=O)c2cc3sccc3n2C)c1 -12.9%, COc1ccccc1NC(=O)CSc1nn2c(=O)c(C)nnc2s1 -8.56%, COc1cccc(NC(=O)c2oc3ccccc3c2NC(C)=O)c1 -5.44%, Cc1cccc2sc(N(Cc3cccnc3)C(=O)CCS(=O)(=O)c3ccccc3)nc12 -5.92%, CC(=O)NCCCc1nc2ccccc2n1Cc1cc(C)ccc1C -7%, CC(=O)c1cccc(NC(=O)COC(=O)c2ccc3c(c2)OCCO3)c1 2.58%, COCCN(C(=O)CNC(=O)c1ccco1)C(C(=O)NC1CCCC1)c1ccccc1F (configuration not stated) 1.78%, CCCCOc1ccc(S(=O)(=O)Nc2ccc(-c3ccc(N4CCCCC4)nn3)cc2)cc1 17.2%, Cc1c(C(=O)N(C)c2ccccc2)sc2nc(-c3ccc(F)cc3)cn12 -13.4%, CC12C=C(/C=C/c3ccc(F)cc3)C(C)(C1)C(c1ccc(F)cc1)CC2=O (configuration not stated) -9.5% [at 15.3 µM], CCOC(=O)c1[nH]nc(C(=O)c2ccc(Br)cc2)c1O -6.42%, COc1ccc(N2CCN(C(=O)c3cn(C4CCCCC4)c(=O)c4c3c3ccccc3n4C)CC2)cc1 131%, COc1cc(C(=O)NC(=S)Nc2ccccc2N2CCCC2)cc(OC)c1OC 5.31%, Cc1ccc(C(=O)N/N=C/c2cccc(OC(=O)/C=C/c3ccco3)c2)cn1 -17.5%, CCc1nnc(NS(=O)(=O)c2ccc(NCc3cc(Br)ccc3O)cc2)s1 -3.56%, O=C(NCCCNC(=O)c1c(F)cccc1F)c1c(F)cccc1F -1.69%
